In the supplement of paper PMC8728848:
Some of the results follow.

Key:
Experiment in all cases: glycan array binding signal (z-score within array); higher = stronger binding
Details in all cases: glycan notation: IUPAC condensed, linker removed
[1] = biological target: Gal(b1-4)GlcNAc(b1-2)Man(a1-3)[Gal(b1-4)GlcNAc(b1-2)Man(a1-6)]Man(b1-4)GlcNAc(b1-4)[Fuc(a1-6)]GlcNAc
Outline: (§1)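 Glycan array data were curated from 3228 arrays in the Consortium for Functional Glycomics database and kept only where the protein sequence was available. Glycan names were converted to IUPAC-condensed notation, and columns mapping to the same glycan were averaged. The binding signal is a within-array Z-score, averaged across arrays of the same protein sequence at different concentrations or buffers and across linkers. Negative Z-scores can be read as non-binding.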

[2] = biological target: Gal(b1-4)GlcNAc(b1-2)Man(a1-3)[Gal(b1-4)GlcNAc(b1-2)Man(a1-6)][Gal(b1-4)GlcNAc(b1-4)]Man(b1-4)GlcNAc(b1-4)[Fuc(a1-6)]GlcNAc
Outline: as §1

[3] = biological target: Gal(b1-4)GlcNAc(b1-2)Man(a1-3)[Gal(b1-4)GlcNAc(b1-2)Man(a1-6)][GlcNAc(b1-4)]Man(b1-4)GlcNAc(b1-4)[Fuc(a1-6)]GlcNAc
Outline: as §1

[4] = biological target: Gal(b1-4)GlcNAc(b1-2)Man(a1-3)[GlcNAc(b1-2)Man(a1-6)]Man(b1-4)GlcNAc(b1-4)GlcNAc
Outline: as §1

[5] = biological target: Gal(b1-4)GlcNAc(b1-2)Man(a1-3)[GlcNAc(b1-4)][Gal(b1-4)GlcNAc(b1-2)Man(a1-6)]Man(b1-4)GlcNAc(b1-4)GlcNAc
Outline: as §1

[6] = biological target: Gal(b1-4)GlcNAc(b1-2)Man(a1-3)[Man(a1-6)]Man(b1-4)GlcNAc(b1-4)GlcNAc
Outline: as §1

[7] = biological target: Gal(b1-4)GlcNAc(b1-2)Man(a1-6)Man(b1-4)GlcNAc(b1-4)GlcNAc
Outline: as §1

[8] = biological target: Gal(b1-4)GlcNAc(b1-2)Man(a1-6)[GlcNAc(b1-2)Man(a1-3)]Man(b1-4)GlcNAc(b1-4)GlcNAc
Outline: as §1

[9] = biological target: Gal(b1-4)GlcNAc(b1-2)Man(a1-6)[Man(a1-3)]Man(b1-4)GlcNAc(b1-4)GlcNAc
Outline: as §1

[10] = biological target: Gal(b1-4)GlcNAc(b1-2)[Gal(b1-4)GlcNAc(b1-4)]Man(a1-3)[Gal(b1-4)GlcNAc(b1-2)Man(a1-6)]Man(b1-4)GlcNAc(b1-4)GlcNAc
Outline: as §1

[11] = biological target: Gal(b1-4)GlcNAc(b1-2)[Gal(b1-4)GlcNAc(b1-4)]Man(a1-3)[Gal(b1-4)GlcNAc(b1-2)[Gal(b1-4)GlcNAc(b1-6)]Man(a1-6)]Man(b1-4)GlcNAc(b1-4)GlcNAc
Outline: as §1

[12] = biological target: Gal(b1-4)GlcNAc(b1-2)[Gal(b1-4)GlcNAc(b1-4)]Man(a1-3)[GlcNAc(b1-4)][Gal(b1-4)GlcNAc(b1-2)Man(a1-6)]Man(b1-4)GlcNAc(b1-4)GlcNAc
Outline: as §1

[13] = biological target: Gal(b1-4)GlcNAc(b1-2)[Gal(b1-4)GlcNAc(b1-4)]Man(a1-3)[GlcNAc(b1-4)][Gal(b1-4)GlcNAc(b1-2)[Gal(b1-4)GlcNAc(b1-6)]Man(a1-6)]Man(b1-4)GlcNAc(b1-4)GlcNAc
Outline: as §1

[14] = biological target: Gal(b1-4)GlcNAc(b1-2)[Gal(b1-4)GlcNAc(b1-6)]Man(a1-6)[Gal(b1-4)GlcNAc(b1-2)Man(a1-3)]Man(b1-4)GlcNAc(b1-4)GlcNAc
Outline: as §1

[15] = biological target: Gal(b1-4)GlcNAc(b1-2)[Gal(b1-4)GlcNAc(b1-6)]Man(a1-6)[Gal(b1-4)GlcNAc(b1-2)Man(a1-3)]Man(b1-4)GlcNAc(b1-4)[Fuc(a1-6)]GlcNAc
Outline: as §1

[16] = biological target: Gal(b1-4)GlcNAc(b1-2)[Gal(b1-4)GlcNAc(b1-6)]Man(a1-6)[GlcNAc(b1-4)][Gal(b1-4)GlcNAc(b1-2)Man(a1-3)]Man(b1-4)GlcNAc(b1-4)GlcNAc
Outline: as §1

[17] = biological target: Gal(b1-4)GlcNAc(b1-2)[Gal(b1-4)GlcNAc(b1-6)]Man(a1-6)[GlcNAc(b1-4)][Gal(b1-4)GlcNAc(b1-2)[Gal(b1-4)GlcNAc(b1-4)]Man(a1-3)]Man(b1-4)GlcNAc(b1-4)[Fuc(a1-6)]GlcNAc
Outline: as §1

[18] = biological target: Gal(b1-4)GlcNAc(b1-3)Gal(b1-3)GalNAc
Outline: as §1

[19] = biological target: Gal(b1-4)GlcNAc(b1-3)Gal(b1-3)GlcNAc
Outline: as §1

[20] = biological target: Gal(b1-4)GlcNAc(b1-3)Gal(b1-4)Glc
Outline: as §1

[21] = biological target: Gal(b1-4)GlcNAc(b1-3)Gal(b1-4)GlcNAc
Outline: as §1

[22] = biological target: Gal(b1-4)GlcNAc(b1-3)Gal(b1-4)GlcNAc(b1-2)Man(a1-3)[Gal(b1-4)GlcNAc(b1-3)Gal(b1-4)GlcNAc(b1-2)Man(a1-6)]Man(b1-4)GlcNAc(b1-4)GlcNAc
Outline: as §1

[23] = biological target: Gal(b1-4)GlcNAc(b1-3)Gal(b1-4)GlcNAc(b1-2)Man(a1-3)[Gal(b1-4)GlcNAc(b1-3)Gal(b1-4)GlcNAc(b1-2)Man(a1-6)]Man(b1-4)GlcNAc(b1-4)[Fuc(a1-6)]GlcNAc
Outline: as §1

B1: Epa22 (Candida glabrata) (protein)
chain: MGSSHHHHHHSSGLVPRGSHMKRALSSQNPFGYPIGCSPQSTNVIPGLTMELYSYPIVSGTPPNCYDASYVDPEYPRTGYLKRKMIGKSTGVTGSLNYKFSVEKACMVKYGNLPAGYNYNEPLTVSNFTMLLYGYFKPQTSGIHTFFVNADDLLYINFGAGNAFDCCKREDSKFKLGEYVAYDIWHVDSSKNKVSLNLEKDVYYPIRMFFNNIGKDSSLDLSFSVNGAVEHITDFSGYLYSVPDQPDACPAPIGYDTTCK
glycan array binding signal (z-score) [1]: -0.365
glycan array binding signal (z-score) [2]: -0.368
glycan array binding signal (z-score) [3]: -0.328
glycan array binding signal (z-score) [4]: -0.309
glycan array binding signal (z-score) [5]: -0.367
glycan array binding signal (z-score) [6]: -0.194
glycan array binding signal (z-score) [7]: -0.185
glycan array binding signal (z-score) [8]: -0.365
glycan array binding signal (z-score) [9]: -0.385
glycan array binding signal (z-score) [10]: -0.298
glycan array binding signal (z-score) [11]: -0.321
glycan array binding signal (z-score) [12]: -0.298
glycan array binding signal (z-score) [13]: -0.372
glycan array binding signal (z-score) [14]: -0.087
glycan array binding signal (z-score) [15]: -0.331
glycan array binding signal (z-score) [16]: -0.288
glycan array binding signal (z-score) [17]: -0.301
glycan array binding signal (z-score) [18]: -0.257
glycan array binding signal (z-score) [19]: -0.42
glycan array binding signal (z-score) [20]: -0.156
glycan array binding signal (z-score) [21]: -0.267
glycan array binding signal (z-score) [22]: 0.073
glycan array binding signal (z-score) [23]: -0.288
